Source: US9924715B2, “Zinc or copper (II) salt and use thereof as a biocide” (LABORATORIYA BIO ZET, LLC, priority 2014, dated 2018)

Test system: human immunodeficience virus (HIV)
Experiment: Virucidal activity, suspension test in vitro (MU 3.52431-08)
Format: cell-based
Conditions: conclusion from Table 2
Source text: Virucidal activity of copper acrylate-propionate obtained as described in example 4 was investigated by analogy with examples 14-19.
Virucidal activity of zinc methacrylate-myristate obtained as described in example 11 was investigated by analogy with examples 14-19.

C=C(C)C(=O)[O-].CC(=O)[O-].[Zn+2] [Zinc methacrylate-acetate, zinc methacrylate-acetate]
Virucidal activity (criterion for disinfectants: inhibition not less than 4 lg TCID50): does not substantially exhibit virucidal activity
